Reference: PubChem BioAssay AID1159614 (National Center for Advancing Translational Sciences (NCATS), 2016)
The campaign covered roughly 45,000 compounds. About 65 (0.1%) were called active. The call rests on the fitted dose curve; in most records, active means well fitted activation curve with a large enough effect; inconclusive means small, poorly fitted or top-dose-only effect; inactive means no such curve, though single readings can be large or run the other way. This is one part of the list.

Biological target: Galactocerebrosidase (Homo sapiens) (UniProt P54803)
Test: A Novel Cell-Based Assay to Identify Small Molecules for B -Galactocerebrosidase; further: 0% is about no effect; nearly all actives have a fitted effect of over 65% in size
Settings: 145M-Twi-hGALC-G270D cells, HMU-beta-Gal fluorescence, 48 h; series mostly up to 57.5 µM; activation: at the top concentration
Outline: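 qHTS, 1536-well; 145M-Twi-hGALC-G270D cells (WT line also made) in DMEM/F12 + 10% FBS; compound incubation on live cells; HMU-β-gal 0.1 mM final, pH 5.2, NaTC; carbonate stop; fluorescence increase = enhanced residual activity.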

Sequence of UniProt P54803 (P54803 whole entry, looked up): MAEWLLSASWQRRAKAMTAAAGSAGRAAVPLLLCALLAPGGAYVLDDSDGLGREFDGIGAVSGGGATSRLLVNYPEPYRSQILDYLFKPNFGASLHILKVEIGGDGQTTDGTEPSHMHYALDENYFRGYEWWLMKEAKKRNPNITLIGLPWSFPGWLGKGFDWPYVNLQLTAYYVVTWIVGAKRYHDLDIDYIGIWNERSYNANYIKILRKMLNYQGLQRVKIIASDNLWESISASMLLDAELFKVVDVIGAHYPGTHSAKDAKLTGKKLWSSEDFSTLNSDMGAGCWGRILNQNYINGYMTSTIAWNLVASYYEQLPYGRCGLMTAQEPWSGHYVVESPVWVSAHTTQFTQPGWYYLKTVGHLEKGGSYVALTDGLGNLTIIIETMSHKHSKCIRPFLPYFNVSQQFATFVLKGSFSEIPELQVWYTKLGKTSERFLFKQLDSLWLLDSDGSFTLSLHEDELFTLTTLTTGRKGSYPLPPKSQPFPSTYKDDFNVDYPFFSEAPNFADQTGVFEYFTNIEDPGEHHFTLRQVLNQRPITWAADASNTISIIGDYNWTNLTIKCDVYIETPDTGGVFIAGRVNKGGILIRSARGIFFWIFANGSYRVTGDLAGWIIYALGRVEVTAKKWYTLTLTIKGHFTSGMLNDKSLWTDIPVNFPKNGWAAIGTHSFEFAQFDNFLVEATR

activation, inactive:
Cc1ccc(Nc2sc(C(=O)c3ccccc3)c(N)c2C(N)=O)cc1 3.29%
CC1CCN(C(=O)C2COc3ccccc3C2)CC1 (stereo not drawn) -18.6%
O=C(CCCn1c(=O)c2cccn2c2ccccc21)NCc1ccccc1Br -8.52%
O=C(NCc1ccccc1)C(=O)Nc1c2c(nn1-c1ccccc1)CSC2 -8.98%
Cc1cc(-c2ccc(C)c(S(=O)(=O)NCC3CCN(Cc4ccccc4F)CC3)c2)on1 -10.7%
Cc1ccc(SCC(=O)Nc2ccc3oc(-c4cccc(Cl)c4)nc3c2)cc1 -12.9%
O=C(Cn1ncc2c3ccccc3n(Cc3ccc(F)cc3)c2c1=O)NCc1ccccn1 1.59%
COc1ccc(OC)c(CNCc2c(C(=O)O)n(Cc3cccc(F)c3)c3cc(OC)ccc23)c1 -2.61%
Cc1ccc(C(c2c(O)cc(C)n(Cc3ccco3)c2=O)N2CCC(C)CC2)cc1 (stereo not drawn) -0.815%
Cc1ccc(-c2nc3ccccc3o2)cc1NC(=O)Cc1ccc(Cl)cc1 -12.6%
O=C(CCn1c(=O)c2sccc2n(Cc2ccc(F)cc2Cl)c1=O)NCc1ccc2c(c1)OCO2 -16.9%
O=C(Nc1sc2c(c1C(=O)NCC1CCCO1)CCCC2)c1cc(=O)c2ccccc2o1 (stereo not drawn) -11.8%
Cc1cccc(-c2nc(CN3CCCC(C(=O)NCCc4ccc(Cl)cc4)C3)c(C)o2)c1 (stereo not drawn) -0.68%
COc1ccc2cc3[n+](cc2c1OC)CCc1cc2c(cc1-3)OCO2 -11.9%
Cc1ccccc1CCNC(=O)c1ccc2c(c1)nc1n2CCCCC1 -8.78%
Cc1cc(C)cc(NC(=O)C2CC(=O)N(c3ccccc3)C2)c1 (stereo not drawn) -18.2%
CCCCCCCCCCOCC(O)CN (stereo not drawn) -14.6%
Cc1ccc2c(c1)c1c(c(=O)n(Cc3ccccc3)c(=O)n1CC(=O)Nc1ccccc1F)n2C -11.5%
COC(=O)c1ccccc1NC(=O)CSc1nc(C)c(Cl)c(C)c1C#N -5.28%
Cc1ccc(-c2cc(C(=O)Oc3ccc(C#N)cc3)no2)cc1C -12.9%
CCc1ccc(NS(=O)(=O)c2[nH]ncc2C(=O)OC)cc1 -8.92%
Cc1ccccc1Cn1c(=O)n(-c2ccc(Cl)cc2)c(=O)c2c3c(sc21)CCCC3 -12.3%
COc1ccc(Cn2c(C(=O)O)c(CNCc3ccc(SC)cc3)c3ccc(OC)cc32)cc1 3.47%
CC(C)NC(=O)CN1C(=O)CCn2nc(-c3cn(C)c4ccccc34)cc21 -18.1%
Cc1ccc2nc(NC(=O)CSc3nccn3Cc3ccc(F)cc3)sc2c1 -39.9%
COCCNc1ccc2cc(S(=O)(=O)N3CCCCC3)ccc2n1 -6.98%
O=C(O)c1ccc(Cn2c(SCc3ccc(F)cc3)nc3ccncc32)cc1 -10.4%
CCC(C)NC(=O)c1sc2nc(C)c(C(=O)Nc3ccc(C)cc3C)c(-c3ccc(NC(C)=O)cc3)c2c1N (stereo not drawn) -11.2%
COCCNC(=O)CCCn1c(SCC(=O)NCc2ccc(C)cc2)nc2c(sc3ccccc32)c1=O -15.7%
COc1cccc(N2CCN(C(=O)CN3CCSc4ccccc43)CC2)c1 -4.86%
COc1ccc(OC)c(S(=O)(=O)NCC(c2cccs2)S(=O)(=O)c2ccc(F)cc2)c1 (stereo not drawn) -17%
Cc1cc(F)ccc1NC(=O)C1CCC(CNS(=O)(=O)c2ccc3c(c2)CCCC(=O)N3)CC1 (stereo not drawn) -6.67%
Cc1ccccc1NC(=O)c1sc2nc3c(cc2c1N)CN(Cc1ccccc1)CC3 -3.91%
CCCS(=O)(=O)N1CCC(C(=O)NCCOC)CC1 7.44%
COc1ccc(-c2nn(-c3ccccc3)cc2C2NC(=O)NC(C)=C2C(=O)OC(C)C)cc1OC (stereo not drawn) 15.9%
Cc1ccc(-c2noc(-c3nnn(-c4cccc(C(F)(F)F)c4)c3N)n2)cc1 -9.97%
O=C(Nc1cc2c(cc1C(=O)c1ccccc1Br)OCCO2)c1cccc(Cl)c1 -25.6%
Cc1ccc(-n2nc(C)c3c(C)cc(=O)n(CC(=O)Nc4cccc(C)c4C)c32)cc1 2.84%
O=C(c1cc2c(=O)oc3ccccc3c2s1)N1CCN(c2ccccc2)CC1 -3%
COc1ccc2c(c1)c1c(c(=O)n(-c3cccc(C)c3)c(=O)n1Cc1cccc(Cl)c1)n2C 3.58%
COc1ccccc1CNc1ncnc2c1cnn2-c1ccc(C)cc1 -8.16%
Cc1nc(-n2nc(C)c(CCC(C)C)c2C)sc1C(=O)Nc1ccc(Cl)cc1 -6.31%
COc1ccc(N2C(=O)CSC23C(=O)N(Cc2cccc(F)c2)c2ccccc23)cc1Cl (stereo not drawn) -31.5%
O=S(=O)(c1ccc2nc(N3CCN(c4ccccc4F)CC3)ccc2c1)N1CCCCC1 -2.82%
CCOc1ccc(C(=O)NCC(c2ccc3c(c2)OCO3)N2CCN(c3ccc(F)cc3)CC2)cc1 (stereo not drawn) -16.3%
CC(=O)Nc1ccc(NS(=O)(=O)c2ccc3[nH]c4c(c3c2)CCCCC4)cc1 -5.21%
COc1ccc(CCN2C(=O)N(c3ccc(F)cc3)C(=O)C2CC(=O)Nc2ccc(OC)cc2)cc1 (stereo not drawn) -14.2%
CCc1ccccc1NC(=O)N1CCC2(CC1)Oc1ccccc1C(=O)N2Cc1ccccc1F -4.71%
CCCC(CCC)C(=O)Nc1cccc(-c2nc3cccnc3s2)c1 -4.19%
Cc1ccc(-n2nc3c(N4CCC(C(=O)NCCc5ccccc5C)CC4)nnc(C)c3c2C)cc1 -14.8%
CCCCC1C(=O)N(c2ccccc2)N(c2ccccc2)C1=O -9.25%
COc1ccc(Cl)cc1NC(=O)CCN1C(=O)c2ccccc2Sc2ncccc21 -12.2%
CCOC(=O)c1ccccc1NC(=O)CSc1cc(C)[nH]c(=O)n1 -5.1%
CC(=O)N1CCc2cc(S(=O)(=O)NC(CC(C)C)C(=O)NCCc3ccccc3)ccc21 (stereo not drawn) -9.74%
CC(C)(C)c1cc(C(C)(C)C)c2oc(=O)c(-c3nc4ccc(C(=O)O)cc4[nH]3)cc2c1 -15.9%
COc1cc(OC)c(NC(=O)N2CCN3CCCCC3C2)cc1Cl (stereo not drawn) 0.936%
Cc1ccc(Nc2nc3ccccc3c3nnc(C)n23)cc1Cl 3.65%
Cc1cc(C)c2c(=O)cc(CSc3nnc(-c4ccccc4)n3C)[nH]c2c1 -6.23%
COc1cc(-c2nnc(SCC(=O)Oc3ccccc3)o2)cc(OC)c1OC -9.12%
COc1ccc(OC)c(Nc2ncc3c(n2)CCN(Cc2cc(OC)c(OC)c(OC)c2)C3)c1 -19.7%
CC(C)C(=O)N1c2nc(C(C)C)nn2C2(CCCCC2)[C@@H]2CCCC[C@@H]21 -18.8%
CC(=O)c1ccc(NC(=O)CSc2nnc(NC(=O)Nc3ccccc3)s2)cc1 -6.21%
COc1ccc(OC)c(NC(=O)Cc2c(C)n(C(=O)c3ccc(Cl)cc3)c3ccc(OC)cc23)c1 -4.28%
COc1ccc(Cl)cc1NC(=O)c1ncn(-c2ccccc2)n1 -25.2%
CCOC(=O)c1cnc2ccc(C(=O)OC)cc2c1Nc1ccc(N2CCOCC2)cc1 -5.14%
CCc1ccccc1Nc1ncnc2c1cnn2-c1ccc(Cl)cc1 -31%
O=C(CO)[C@@H](O)[C@H](O)[C@@H](O)CO -18.4%
CCOc1ccc(CCNC(=O)c2ccc(CS(=O)(=O)c3ccccc3C)o2)cc1OCC 1.68%
COC(=O)c1ccc(Cn2c(SCC(=O)NCc3ccccc3)nc3ccccc32)cc1 -20.5%
CSCCC(NS(=O)(=O)c1cccs1)C(=O)Nc1ccc(C)c(Cl)c1 (stereo not drawn) -16.6%
CCc1ccccc1NC(=O)c1sc2nc3n(c(=O)c2c1C)CCC3 -17.5%
COc1cc(CN(C(=O)c2ccc(OC(C)C)cc2)C2CCS(=O)(=O)C2)cc(OC)c1OC (stereo not drawn) -22.3%
CCN1CCOC(=O)C1CC(=O)Nc1ccc(C(C)=O)cc1 (stereo not drawn) -2.23%
CC(=O)c1cccc(NC(=O)CN2C(=O)c3cccnc3Sc3ccccc32)c1 -6.11%
CCc1ccc(NC(=O)Cn2c(=O)n(-c3ccccc3)c(=O)c3ccc(C(=O)NCc4ccc5c(c4)OCO5)cc32)cc1 9.74%
Cc1ccc(C)c(Cn2c(=O)n(Cc3ccco3)c(=O)c3oc4ccccc4c32)c1 1.92%
N#CC1(c2ccc(F)cc2)CCC(=O)CC1 -9.87%
CN(C)c1cc2c(cc1NC(=O)c1ccc(F)cc1)n(C)c(=O)n2C 5.34%
CCOc1ccc(CNC(=O)c2ccc(NC(=O)N3CCSc4ncccc43)cc2)cc1OC -8.8%
COc1cccc(Cn2c(C)c(CNCc3ccccc3Cl)c(C(=O)O)c2C)c1 -12.3%
Cc1ccccc1OCc1ccc(-c2nc(C#N)c(N3CCN(c4ccccc4)CC3)o2)o1 -23.6%
O=C(NCCCc1nc2ccccc2n1Cc1ccccc1)C1CCCCC1 -6.14%
Cc1cccc(-c2nnn3c2nc(NCc2ccccc2)c2ccccc23)c1 -7.56%
CNC(=O)C1CCN(Cc2cc3ccccc3n2Cc2cccc(C)c2)CC1 -8.85%
CC(C)CCNC(=O)C1CCN(S(=O)(=O)c2cccc3nsnc23)CC1 -5.36%
CCc1ccc(-c2cc(C)no2)cc1S(=O)(=O)Nc1ccc(C)cn1 -0.719%
COc1ccc(NC(=O)CCS(=O)(=O)c2nc(-c3ccc4c(c3)OCO4)cc(C(F)(F)F)n2)c(OC)c1 -11.8%
O=C(O)c1ccc2c(c1)N(Cc1ccc(F)cc1Cl)C(=O)c1ccccc1S2 -3.58%
COc1ccc(CCNC(=O)c2cc(S(=O)(=O)N3CCCC(C)C3)cn2C)cc1OC (stereo not drawn) -6.15%
CC(C)N(Cc1ccccc1)C(=O)CN1C(=O)COc2ccc(S(=O)(=O)N3CCCCCC3)cc21 -2.75%
CCN(C(=O)c1cnc(N2CCOCC2)c2ccccc12)c1cc(C)ccc1C -6.48%
CC(CNC(=O)CCCn1c(=O)c2cccn2c2ccccc21)c1ccccc1 (stereo not drawn) -15.2%
O=C(OCc1cc(=O)n2nc(-c3cccs3)sc2n1)c1ccccc1Br -8.54%
CC(=O)Nc1ccc(NC(=O)CCC(=O)c2ccc(C)cc2)cc1 -18%
COc1cccc(CNc2nc3c(-c4cccc(C)c4)nnn3c3ccccc23)c1 -11%
CCOc1ccc(-c2nnc(SCC(=O)NCCc3ccccc3)nc2-c2ccc(OCC)cc2)cc1 -15.1%
Cc1cc(NC(=O)C(C)(C)Oc2ccc(Cl)cc2)cc(-c2nc3ncccc3o2)c1O 10.8%
CCOc1ccccc1NC(=O)c1ccc2c(Cl)c3c(nc2c1)CCCC3 -16.3%
